# Data as given in article PMC4336329 (PLoS ONE, 2015).
# Hit rate of the full screen: of about 310,000 compounds, about 14,000 (4.5%) showed an effect of 50% or more. The effect is printed as a negative number. The list shows a part of the results.
# Molecular target: human ether-à-go-go-related gene (hERG) potassium channel (human, UniProt Q12809)
# Experiment: primary screen, population patch clamp on CHO cells stably expressing hERG
# 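Also: peak tail current of the secondary pulse compared with the same well before compound.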
# Chain of human ether-à-go-go-related gene (hERG) potassium channel (Q12809 whole entry, looked up): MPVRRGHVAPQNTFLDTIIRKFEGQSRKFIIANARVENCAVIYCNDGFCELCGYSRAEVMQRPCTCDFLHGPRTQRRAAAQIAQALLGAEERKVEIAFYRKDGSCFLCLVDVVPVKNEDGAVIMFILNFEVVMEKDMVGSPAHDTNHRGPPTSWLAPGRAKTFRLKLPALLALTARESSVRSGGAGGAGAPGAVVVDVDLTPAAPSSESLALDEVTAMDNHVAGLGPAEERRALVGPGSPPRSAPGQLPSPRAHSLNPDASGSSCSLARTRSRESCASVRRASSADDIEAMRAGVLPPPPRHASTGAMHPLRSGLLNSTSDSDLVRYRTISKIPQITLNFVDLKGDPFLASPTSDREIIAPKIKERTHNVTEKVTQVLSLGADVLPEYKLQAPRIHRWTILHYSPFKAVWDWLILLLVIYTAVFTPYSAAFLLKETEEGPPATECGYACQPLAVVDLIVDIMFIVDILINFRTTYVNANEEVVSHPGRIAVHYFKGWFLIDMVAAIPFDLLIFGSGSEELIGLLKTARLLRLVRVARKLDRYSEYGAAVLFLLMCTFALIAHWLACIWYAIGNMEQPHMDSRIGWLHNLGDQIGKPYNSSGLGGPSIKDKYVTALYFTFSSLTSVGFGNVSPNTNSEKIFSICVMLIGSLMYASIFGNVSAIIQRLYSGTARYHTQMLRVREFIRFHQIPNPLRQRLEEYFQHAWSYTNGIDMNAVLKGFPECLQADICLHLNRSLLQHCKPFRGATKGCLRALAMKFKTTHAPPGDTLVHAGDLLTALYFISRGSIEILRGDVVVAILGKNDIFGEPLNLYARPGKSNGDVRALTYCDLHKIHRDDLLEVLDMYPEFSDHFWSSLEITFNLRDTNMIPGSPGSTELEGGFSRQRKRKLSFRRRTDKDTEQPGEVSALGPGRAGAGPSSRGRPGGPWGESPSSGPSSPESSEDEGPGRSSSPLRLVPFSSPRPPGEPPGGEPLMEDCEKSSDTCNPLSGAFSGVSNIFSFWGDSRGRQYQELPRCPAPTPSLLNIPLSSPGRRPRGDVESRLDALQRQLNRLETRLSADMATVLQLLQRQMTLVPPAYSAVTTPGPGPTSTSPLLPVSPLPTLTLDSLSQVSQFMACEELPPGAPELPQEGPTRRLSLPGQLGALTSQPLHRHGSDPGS
row,SMILES,"hERG current change (%, negative = inhibition) at 10uM [%]"
1,O=C(NCCC1=CCCCC1)C1CCN(S(=O)(=O)c2ccccc2C(F)(F)F)CC1,16.4
2,CCOc1ccc(Nc2nc3c(c(=O)[nH]2)CCC3)cc1,-1.32
3,Cc1ccc(S(=O)(=O)NCc2nnc(SCC(=O)Nc3cccc(C)c3C)n2C)cc1,-19.7
4,CCC(=O)N1CCc2cc(S(=O)(=O)CCC(=O)NCc3ccco3)ccc21,9.48
5,CSCCC(NC(=O)c1cc([N+](=O)[O-])ccc1Cl)C(=O)O (stereo not shown),19.6
6,CSc1ncccc1C(=O)Nc1ccc(C)cn1,0.536
7,O=[N+]([O-])c1ccc(NCCCO)c(C(F)(F)F)c1,-5.87
8,CN(CC(=O)N1CC=C(c2ccccc2)CC1)S(=O)(=O)c1cnc[nH]1,1.5
9,Cc1cc(NC(=O)CS(=O)(=O)Cc2ccccc2)no1,11.8
10,O=CN1CCN(C(C(=O)NC2CCCCC2)c2cc3c(cc2[N+](=O)[O-])OCO3)CC1 (stereo not shown),13
11,CCCCCOC(=O)CSc1nnc(-c2cc(OC)c(OC)c(OC)c2)o1,-11.2
12,Cc1nc(-c2ccccc2)sc1C(N)=O,9.01
13,O=[N+]([O-])c1cc(/C=N/O)ccc1Oc1cccc(Cl)c1,-53.7
14,CCN(CC(=O)Nc1c(F)cccc1F)C(=O)/C=C/c1ccc(C)o1,17.2
15,Cc1onc(-c2ccccc2)c1C(=O)NC(C)c1ccc2c(c1)OCO2 (stereo not shown),27.7
16,CCOc1ccc(C(=S)N2CCCC2)cc1OCC,9.86
17,O=C1CCCC/C1=C\Nc1ccc(C(=O)O)c(O)c1,6.02
18,COc1ccc(S(=O)(=O)N(C)CC(=O)Nc2ccccc2C(F)(F)F)cc1OC,-7.67
19,CC1CCCC(C)N1C(=O)CSc1ccc(-c2ccc3c(c2)OCCO3)nn1 (stereo not shown),-26.5
20,COc1ccc(C)cc1NC(=O)Cn1cnc2sc(C)c(S(=O)(=O)N3CCOCC3)c2c1=O,7.43
21,Cc1ccc2c(c1)c1c3n2CCN(CCC(=O)O)C3CCC1 (stereo not shown),-3.49
22,Cc1cc(-c2nnc(CCC(=O)N(C)Cc3cccc4ccccc34)o2)no1,-23

row,SMILES,"hERG current change (%, negative = inhibition) at 10uM [%]"
1,O=C(Oc1ccccc1)n1c(=S)oc2ccccc21,12.2
2,CC1(C(=O)O)Sc2[nH]c(=O)sc2C2c3ccccc3OC(=O)C21 (stereo not shown),15.4
3,CCOC(=O)CCc1c(C)nc(SCCN2CCCC2)c(C#N)c1C,-63.9
4,O=C(c1ccc([N+](=O)[O-])o1)N1CCN(c2nc3ccc(F)cc3s2)CC1,-23.7
5,O=C(NCCc1ccc(F)cc1)Nc1ccccc1,-22.1
6,CC1C(=O)N2CCCc3cc(NC(=O)C(=O)NCCN4CCOCC4)cc1c32 (stereo not shown),15.2
7,O=S(=O)(NC1=NCCCCC1)c1ccc(F)cc1,11.1
8,Cc1ccc(S(=O)(=O)N2CCCN(S(=O)(=O)c3ccc4ccccc4c3)CC2)cc1,-3.38
9,COc1cc(OC)c(NC(=O)c2sc3ncn(CC(=O)N4CCOCC4)c(=O)c3c2C)cc1Cl,11.8
10,Cc1oc(-c2ccccc2Cl)nc1CS(=O)(=O)CC(=O)NC(C)c1ccccc1 (stereo not shown),-2.46
11,O=C(NC1CCCCC1)c1cc(-c2ccco2)on1,13.4
12,COc1ccc(OCC(=O)Nc2nnc(C)s2)cc1,9.71
13,COC(=O)c1[nH]c(C)c(/C(O)=C2\C(=O)C(=O)N(CCN3CCOCC3)C2c2ccc(C)o2)c1C (stereo not shown),-6.49
14,Cc1cccc(N(CC(=O)NCC2CCCO2)C(=O)CCC(=O)Nc2nccs2)c1 (stereo not shown),12.9
15,COc1ccc(NS(=O)(=O)c2ccc(C)c(C(=O)NCc3cccnc3)c2)cc1,8.65
16,O=C(c1ccc(OC2CCN(Cc3ccccc3C(F)(F)F)CC2)cc1)N1CCCCC1,2.01
17,CCC(C)/C(C)=N/NC(=O)c1ccc(CSc2nc3ccccc3s2)cc1 (stereo not shown),-1.29
18,COc1ccc(NC(=O)c2cc(=O)[nH]c(=O)[nH]2)cc1S(=O)(=O)Nc1ccccc1Cl,19.4
19,CC(C)(C)C(=O)CN1C(=O)NC2(CCOc3ccccc32)C1=O (stereo not shown),4.47
20,Cc1noc(C)c1C(=O)Nc1ccccc1N1CCCC1,-1.23
21,NP(=O)(OCC(F)(F)F)Oc1cccc2ccccc12 (stereo not shown),-12.4
22,Cc1cc(NC(=O)c2ccccc2)ccc1NC(=O)c1ccccc1Cl,15.8

row,SMILES,"hERG current change (%, negative = inhibition) at 10uM [%]"
1,CC(C)(C)c1cc(N/C=C\c2nnnn2-c2ccc(Br)cc2)no1,12.1
2,CN(C)c1ccc(-c2c(-c3ccc4c(c3)OCO4)noc2-c2ccsc2)cn1,0.917
3,CSc1nccc(Oc2cccc(C#N)c2)n1,-14.4
4,Cc1cc(C)n2c(SC(C)C(=O)NC3(C#N)CCCCC3)nnc2n1 (stereo not shown),20.5
5,CCCCCc1nnc(N)s1,0.168
6,Cc1nc(Cc2nnc(SCc3nc(N)nc(Nc4ccccc4C)n3)o2)cs1,-3.37
7,CCOc1ccc(C(C)C)cc1S(=O)(=O)N1CCOCC1,-6.35
8,CCOC(=O)N1CCC(NC(=O)CSc2cc(=O)n(CC)c3ccccc23)CC1,-3.31
9,COc1cccc(OCC(=O)Nc2ccccc2C(N)=O)c1,9.1
10,COCCCNC(=O)c1oc2ccc(S(=O)(=O)N(C)C3CCCCC3)cc2c1C,-4.45
11,CCOc1ccccc1NC(=O)CCCc1ccc(OC)c(C)c1,-14.7
12,O=C(Nc1ccccc1)N1CCC(C(=O)N2CCCC(C(F)(F)F)C2)CC1 (stereo not shown),16
13,COc1cccc(NC(=S)N2CCN(Cc3ccccc3)CC2)c1,-5.9
14,CCn1c(Cc2ccccc2)nnc1SCC(=O)Nc1nc(C)cs1,-12.4
15,O=C(CN1C(=O)CSCC1=O)Nc1ccc2c(c1)OCO2,16.2
16,O=C(c1cccs1)N(CCN1CCCCC1)CC1CCCN(C2CCCC2)C1 (stereo not shown),1.03
17,N#CCCN(C(=O)COC(=O)Cc1c[nH]c2ccccc12)c1ccccc1,1.86
18,COc1ccccc1NC(=O)CCC(=O)N/N=C(/C)c1ccc(C)cc1,9.03
19,O=C(Nc1ccc(CN2CCOCC2)cc1)c1ccc(Cl)cc1,-15.2
20,Cc1ccc(/C(N)=N/OC(=O)c2cc(-c3ccccc3)nc3ccccc23)cc1,4.59
21,CCOC(=O)c1c(NC(=O)C2C3C=CC(CC3)C2C(=O)O)sc(C)c1C (stereo not shown),-11.3
22,Cc1cc(C)n2nc3ccccc3c2n1,7.41

row,SMILES,"hERG current change (%, negative = inhibition) at 10uM [%]"
1,Cc1cccc(/C=C/c2onc(C)c2S(=O)(=O)N2CCC(C(=O)N3CCCCC3)CC2)c1,4.27
2,Cc1nc(SCc2ccccc2F)c2oc3ccccc3c2n1,15.4
3,COc1ccc(-c2oc3ncn4nc(COc5ccccc5)nc4c3c2-c2ccc(OC)cc2)cc1,-1.99
4,Nc1[nH]c2cc([N+](=O)[O-])ccc2c1-c1ccccn1,20.1
5,COc1ccc(CCNC(=O)/C=C/c2ccc(S(=O)(=O)N3CCOCC3)cc2)cc1,-14.9
6,CSc1ncccc1C(=O)OCC(=O)c1cccc(Br)c1,2.95
7,COc1ccc(N(CC(O)Cn2c(C)nc3ccccc32)S(=O)(=O)c2ccc(C)cc2)cc1 (stereo not shown),-11.5
8,Nc1c2c(nc3sc4c(c13)CCCCC4)CCCCC2,-25.9
9,CCCc1cc(=O)[nH]c2nnc(SCC(=O)Nc3nccs3)n12,-4.26
10,O=CN1CCN(C(=O)c2ccc3c(c2)OCO3)CC1,21.6
11,COC(=O)C1=C(C)NC(C)=C(C(=O)OC)C1C(=O)OC1CCCCC1=O (stereo not shown),3.76
12,Cc1cccc2sc(N(CCCN(C)C)C(=O)CN3C(=O)c4ccccc4C3=O)nc12.Cl,-11.2
13,Cc1cc(NC(=O)C2CCCN(S(=O)(=O)c3c(C)noc3C)C2)no1 (stereo not shown),-0.534
14,COc1ccc(N2CCN(c3nc(=S)n(-c4ccccc4)c(C)c3C(C)=O)CC2)cc1,-9.97
15,CC(C)N(Cc1nc(-c2ccc(Cl)cc2)no1)C(=O)C(c1ccccc1)c1ccccc1,-7.12
16,Cc1ccc(S(=O)(=O)NC(=O)NCCCCNC(=O)NS(=O)(=O)c2ccc(C)cc2)cc1,-1.26
17,O=C(Oc1ccc2c3c(c(=O)oc2c1)CCC3)c1ccccc1[N+](=O)[O-],3.02
18,O=C(OCc1csc(-c2ccccc2)n1)C1=NN(c2ccccc2)C(=O)CC1,4.47
19,CC(C)n1c(SCC(=O)N2CCN(C(=O)c3ccco3)CC2)nc2c1c(=O)n(C)c(=O)n2C,-50.9
20,Cc1ccc(N=C2NC(=O)/C(=C/c3cccn3C)S2)cc1,-5.73
21,Cc1ccccc1CN(C)CC(=O)Nc1cccc(S(=O)(=O)N(C)c2ccccc2)c1,2.13
22,O=C(NNC(=O)C1CC(=O)N(c2ccc3c(c2)OCCO3)C1)c1ccc(F)cc1 (stereo not shown),-5.99
